Each block holds one binder with its values, some of them ahead of it.
Experiments:
Test in all cases: ELISA, 1 ug/ml
huCD98hc ECD Avi-His = molecular target: T1, huCD98hc ECD Avi-His (human, UniProt P08195 105-529)
T1 construct: biotinylated on the Avi tag where captured on streptavidin; also called Human CD98-AVI-His; Human CD98hc-AVI-His
T1 sequence: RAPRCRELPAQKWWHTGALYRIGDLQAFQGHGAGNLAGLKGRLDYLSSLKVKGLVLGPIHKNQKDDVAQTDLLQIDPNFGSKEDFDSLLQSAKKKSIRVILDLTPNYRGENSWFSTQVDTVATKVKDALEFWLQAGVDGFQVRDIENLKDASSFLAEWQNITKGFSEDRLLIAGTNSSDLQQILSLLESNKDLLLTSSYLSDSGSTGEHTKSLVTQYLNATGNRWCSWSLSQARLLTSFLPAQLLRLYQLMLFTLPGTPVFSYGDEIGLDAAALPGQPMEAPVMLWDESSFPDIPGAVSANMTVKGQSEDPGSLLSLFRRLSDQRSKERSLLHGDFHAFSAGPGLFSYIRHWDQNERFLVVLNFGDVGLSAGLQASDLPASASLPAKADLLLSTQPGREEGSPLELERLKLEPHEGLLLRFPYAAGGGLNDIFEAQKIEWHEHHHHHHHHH
Description: (§1) To determine binding retention of reformatted 2+1 anti-CD98hc bispecific antibodies by ELISA, high binding ELISA plates (Thermo Fisher) were coated with streptavidin (1 μg/ml, Thermo Fisher) overnight at 4° C. Plates were then washed three times with phosphate buffered saline with 0.05% tween-20 (PBST) and incubated with block buffer (PBS+1% BSA, 1 h, room temperature). Plates were washed three times again with PBST and incubated with biotinylated human, cyno, and mouse CD98hc and an irrelevant antigen, human transferrin receptor (1 μg/ml, 1 h, room temperature). Plates were washed three times again with PBST and incubated with anti-CD98hc antibodies (1 μg/ml, 1 h, room temperature). Plates were washed three times again with PBST and incubated with a secondary detection antibody, anti-human horseradish peroxidase conjugated antibody (1:5000 dilution, 30 min, room temperature). Plates were washed three times one last time and incubated with TMB-ELISA Substrate Solution (Thermo Fisher) and then quenched with H₂SO₄. Anti-CD98hc binding was then analyzed by quantifying optical density at 450 nm (OD₄₅₀) using the SpectraMax M5 (Molecular Devices). The binding characteristics of the various 2+1 anti-CD98hc bispecific antibodies to CD98hc (human, cyno, mouse) and control human TfR are summarized below in Table 16, shown as fold-change relative to isotype hIgG.

Cyno CD98hc ECD Avi-His = molecular target: T2, Cyno CD98hc ECD Avi-His (cynomolgus macaque, UniProt P08195 105-529 (human entry))
T2 construct: biotinylated on the Avi tag where captured on streptavidin; also called Cyno CD98-AVI-His; Cyno CD98hc-AVI-His
T2 chain: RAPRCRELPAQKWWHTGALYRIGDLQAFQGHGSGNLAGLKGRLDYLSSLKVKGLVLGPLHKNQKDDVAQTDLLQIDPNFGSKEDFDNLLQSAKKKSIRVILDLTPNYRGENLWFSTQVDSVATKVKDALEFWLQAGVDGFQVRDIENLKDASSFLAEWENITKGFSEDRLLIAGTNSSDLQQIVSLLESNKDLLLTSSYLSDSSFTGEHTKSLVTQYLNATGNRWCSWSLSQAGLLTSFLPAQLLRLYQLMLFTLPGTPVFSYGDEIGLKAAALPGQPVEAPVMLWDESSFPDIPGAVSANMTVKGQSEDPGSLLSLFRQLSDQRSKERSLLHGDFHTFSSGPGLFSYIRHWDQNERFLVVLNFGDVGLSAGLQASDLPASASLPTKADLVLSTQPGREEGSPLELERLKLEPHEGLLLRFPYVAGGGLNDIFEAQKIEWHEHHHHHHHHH
Description: as §1

muCD98hc ECD Avi-His = molecular target: T3, muCD98hc ECD Avi-His (mouse, UniProt P10852 100-526)
T3 construct: biotinylated on the Avi tag where captured on streptavidin; also called Mouse CD98-AVI-His; Mouse CD98hc-AVI-His
T3 sequence: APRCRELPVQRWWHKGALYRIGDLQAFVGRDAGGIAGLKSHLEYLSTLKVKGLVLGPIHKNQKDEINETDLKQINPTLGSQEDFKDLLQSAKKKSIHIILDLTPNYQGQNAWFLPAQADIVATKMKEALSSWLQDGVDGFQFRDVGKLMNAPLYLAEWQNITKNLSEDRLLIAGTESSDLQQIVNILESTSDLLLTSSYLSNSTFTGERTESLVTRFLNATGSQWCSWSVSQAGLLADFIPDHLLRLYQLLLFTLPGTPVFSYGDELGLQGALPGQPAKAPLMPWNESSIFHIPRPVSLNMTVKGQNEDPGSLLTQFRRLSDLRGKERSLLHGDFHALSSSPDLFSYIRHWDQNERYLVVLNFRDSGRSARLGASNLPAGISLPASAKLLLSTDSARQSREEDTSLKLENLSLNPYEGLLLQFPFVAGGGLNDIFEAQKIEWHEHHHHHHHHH
Description: as §1

[1] = molecular target: T4, Human TfR-AVI-His (control) (human, UniProt P02786)
T4 construct: control protein; also called Avi-His-tagged human TfR; human transferrin receptor
Description: as §1

T4 sequence (P02786 89-760 limits assumed): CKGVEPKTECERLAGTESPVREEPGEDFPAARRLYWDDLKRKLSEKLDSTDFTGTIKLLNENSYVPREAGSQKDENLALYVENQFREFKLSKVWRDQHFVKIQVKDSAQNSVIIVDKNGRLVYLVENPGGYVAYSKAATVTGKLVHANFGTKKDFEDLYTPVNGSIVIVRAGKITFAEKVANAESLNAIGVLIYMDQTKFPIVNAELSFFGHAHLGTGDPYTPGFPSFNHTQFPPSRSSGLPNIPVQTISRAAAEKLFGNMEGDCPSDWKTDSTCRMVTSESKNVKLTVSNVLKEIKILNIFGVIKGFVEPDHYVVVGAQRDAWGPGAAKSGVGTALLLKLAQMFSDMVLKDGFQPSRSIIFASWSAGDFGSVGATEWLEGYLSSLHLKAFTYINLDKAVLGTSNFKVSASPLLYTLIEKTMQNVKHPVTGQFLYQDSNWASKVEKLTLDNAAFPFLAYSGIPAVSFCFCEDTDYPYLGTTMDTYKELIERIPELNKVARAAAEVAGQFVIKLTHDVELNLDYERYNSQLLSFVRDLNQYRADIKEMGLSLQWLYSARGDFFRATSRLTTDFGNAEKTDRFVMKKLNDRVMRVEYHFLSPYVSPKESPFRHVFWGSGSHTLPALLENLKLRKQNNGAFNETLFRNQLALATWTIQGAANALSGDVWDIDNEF

B1: CD98hc.03.002 (2+1 bispecific antibody) (bispecific antibody)
heavy 1: EVRLLESGGGLVQPGGSLRLSCAASGFTFSNYAMGWVRQAPGKGLEWVSAISGSGGSTYYADSVKGRFTTSRDDSKNALYLQMNSLRAEDTAVYYCARGGPGWYAADVWGQGTTVTVSSASTKGPSVFPLAPSSKSTSGGTAALGCLVKDYFPEPVTVSWNSGALTSGVHTFPAVLQSSGLYSLSSVVTVPSSSLGTQTYICNVNHKPSNTKVDKKV[here human IgG1 Fc with changes without letters]GGGGSGGGGSGGGGSDVQLVESGGGLVQPGGSRKLSCAASGFTFSTFGMHWVRQAPEKGLEWVAYISGGSTNIYYADTVKGRFTISRDNPKNTLFLQMTSLRSEDTAMYYCARETTLLATNFDYWGQGTTLTVSSGGSEGKSSGSGSESKSTGGSDIQMTQTTSSLSASLGDRVTISCRASQDISNYLNWYQQKPDGTVKLLIYYTSRLHSGVPSRFSGSGSGTDYSLTISNLEQEDIATYFCQQGSTLPRTFGGGTKLEIK
heavy 2: EVRLLESGGGLVQPGGSLRLSCAASGFTFSNYAMGWVRQAPGKGLEWVSAISGSGGSTYYADSVKGRFTTSRDDSKNALYLQMNSLRAEDTAVYYCARGGPGWYAADVWGQGTTVTVSS[here human IgG1 constant region with changes without letters]
light: DIQMTQSPSSLSASVGDRVTITCRASQSISSYLNWYQQKPGKAPKLLIYAASSLQSGVPSRFSGSGSGTDFTLTISSLQPEDFATYYCQQADLPAFAFGGGTKVEIKRTVAAPSVFIFPPSDEQLKSGTASVVCLLNNFYPREAKVQWKVDNALQSGNSQESVTEQDSKDSTYSLSSTLTLSKADYEKHKVYACEVTHQGLSSPVTKSFNRGEC
ELISA fold-change relative to isotype hIgG (huCD98hc ECD Avi-His): 25
ELISA fold-change relative to isotype hIgG (Cyno CD98hc ECD Avi-His): 24.1
ELISA fold-change relative to isotype hIgG (muCD98hc ECD Avi-His): 1.6
ELISA fold-change relative to isotype hIgG [1]: 1.3

B3: CD98hc.03.031 (2+1 bispecific antibody) (bispecific antibody)
heavy 1: EVRLLESGGGLVQPGGSLRLSCAASGFTFSNYAMGWVRQAPGKGLEWVSAISGSGGSTYYADSVKGRFTTSRDDSKNALYLQMNSLRAEDTAVYYCARGGPGWYAADVWGQGTTVTVSSASTKGPSVFPLAPSSKSTSGGTAALGCLVKDYFPEPVTVSWNSGALTSGVHTFPAVLQSSGLYSLSSVVTVPSSSLGTQTYICNVNHKPSNTKVDKKV[here human IgG1 Fc with changes without letters]GGGGSGGGGSGGGGSQVQLQQSGAELVRPGVSVKISCKASGYTFTDYAMHWVKQSHAKSLEWIGVISTYYGDTTYNQKFKDKATMTVDKSSSTAYLELARLTSEDSAIYYCARVWLLSYAMDNWGQGTSVTVSSGGSEGKSSGSGSESKSTGGSDIVMTQSQRFMSTSVGDGVRITCKASQNVRTAVAWYQQKPGQSPKALINLAPNRHTGVPDRFTARGSGTDFTLTISNVQSEDLADYFCLQHWNYPLTFGAGTKLELK
heavy 2: EVRLLESGGGLVQPGGSLRLSCAASGFTFSNYAMGWVRQAPGKGLEWVSAISGSGGSTYYADSVKGRFTTSRDDSKNALYLQMNSLRAEDTAVYYCARGGPGWYAADVWGQGTTVTVSS[here human IgG1 constant region with changes without letters]
light: B1 light
ELISA fold-change relative to isotype hIgG (huCD98hc ECD Avi-His): 19.6
ELISA fold-change relative to isotype hIgG (Cyno CD98hc ECD Avi-His): 18.5
ELISA fold-change relative to isotype hIgG (muCD98hc ECD Avi-His): 1.7
ELISA fold-change relative to isotype hIgG [1]: 1.4

B5: CD98hc.03.010 (2+1 bispecific antibody) (bispecific antibody)
heavy 1: EVRLLESGGGLVQPGGSLRLSCAASGFTFSNYAMGWVRQAPGKGLEWVSAISGSGGSTYYADSVKGRFTTSRDDSKNALYLQMNSLRAEDTAVYYCARGGPGWYAADVWGQGTTVTVSSASTKGPSVFPLAPSSKSTSGGTAALGCLVKDYFPEPVTVSWNSGALTSGVHTFPAVLQSSGLYSLSSVVTVPSSSLGTQTYICNVNHKPSNTKVDKKV[here human IgG1 Fc with changes without letters]GGGGSGGGGSGGGGSEVQLQQSGTELVKPGASVKLSCTASGLDIKDTYLHWVKQRPEQGLEWIGKIDPANGNTKYNPKFQGKATITADTSSNTAYLQLSSLTSEDTAVHYCTTPYYSGSSYGDYWGQGTTLTVSSGGSEGKSSGSGSESKSTGGSQIVLTQSPAIMSASPGEKVTLTCSASSSVSSSYLYWYQQKPGSSPKLWIYSTSNLASGVPARFSGSGSGTSYSLTISSMEAEDAASYFCHQWSRYPLTFGAGTKLELK
heavy 2: EVRLLESGGGLVQPGGSLRLSCAASGFTFSNYAMGWVRQAPGKGLEWVSAISGSGGSTYYADSVKGRFTTSRDDSKNALYLQMNSLRAEDTAVYYCARGGPGWYAADVWGQGTTVTVSS[here human IgG1 constant region with changes without letters]
light: B1 light
ELISA fold-change relative to isotype hIgG (huCD98hc ECD Avi-His): 25.7
ELISA fold-change relative to isotype hIgG (Cyno CD98hc ECD Avi-His): 21.2
ELISA fold-change relative to isotype hIgG (muCD98hc ECD Avi-His): 1.2
ELISA fold-change relative to isotype hIgG [1]: 1.2

Results, then the binder that gave them:

ELISA fold-change relative to isotype hIgG (huCD98hc ECD Avi-His): 30.1
ELISA fold-change relative to isotype hIgG (Cyno CD98hc ECD Avi-His): 28
ELISA fold-change relative to isotype hIgG (muCD98hc ECD Avi-His): 1.1
ELISA fold-change relative to isotype hIgG [1]: 1.1
B2: CD98hc.04.003 (2+1 bispecific antibody) (bispecific antibody)
heavy 1: EVRLLESGGGLVQPGGSLRLSCAASGFTFSNYAMGWVRQAPGKGLEWVSAISGSGGSTYYADSVKGRFTTSRDDSKNALYLQMNSLRAEDTAVYYCARGGPGWYAADVWGQGTTVTVSSASTKGPSVFPLAPSSKSTSGGTAALGCLVKDYFPEPVTVSWNSGALTSGVHTFPAVLQSSGLYSLSSVVTVPSSSLGTQTYICNVNHKPSNTKVDKKV[here human IgG1 Fc with changes without letters]GGGGSGGGGSGGGGSQVQLQQSGAELAKPGASLKMSCKASGYTFTDYYIHWVKQRPGQDLEWIGYINPNSAYTDSNQKFKDKATLTADKSSNTAYMQLSSLTSEDSAVYYCARKGHFYAPSFAYWGQGTLVTVSAGGSEGKSSGSGSESKSTGGSDIQMTQTTSSLSASLGDRVTISCRASQDISNYLNWYQQKPDGTVKLLIYYTSRLHSGVPSRFSGSGSGADYSLTISNLQQEDIATYFCQQGDTLPYTFGGGTKLEIE
heavy 2: EVRLLESGGGLVQPGGSLRLSCAASGFTFSNYAMGWVRQAPGKGLEWVSAISGSGGSTYYADSVKGRFTTSRDDSKNALYLQMNSLRAEDTAVYYCARGGPGWYAADVWGQGTTVTVSS[here human IgG1 constant region with changes without letters]
light: B1 light

ELISA fold-change relative to isotype hIgG (huCD98hc ECD Avi-His): 14.9
ELISA fold-change relative to isotype hIgG (Cyno CD98hc ECD Avi-His): 10.8
ELISA fold-change relative to isotype hIgG (muCD98hc ECD Avi-His): 1.1
ELISA fold-change relative to isotype hIgG [1]: 1.8
B4: CD98hc.04.009 (2+1 bispecific antibody) (bispecific antibody)
heavy 1: EVRLLESGGGLVQPGGSLRLSCAASGFTFSNYAMGWVRQAPGKGLEWVSAISGSGGSTYYADSVKGRFTTSRDDSKNALYLQMNSLRAEDTAVYYCARGGPGWYAADVWGQGTTVTVSSASTKGPSVFPLAPSSKSTSGGTAALGCLVKDYFPEPVTVSWNSGALTSGVHTFPAVLQSSGLYSLSSVVTVPSSSLGTQTYICNVNHKPSNTKVDKKV[here human IgG1 Fc with changes without letters]GGGGSGGGGSGGGGSQVQLKESGPGLVAPSQSLSITCTVSGFSLTSYGVHWVRQPPGKGLEWLGVIWAGGSTYYNSALMSRLSISKDNAKSQVLLKMSSLQTDDTAMYYCARDNYGGVYLDVWGAGTTVTVSSGGSEGKSSGSGSESKSTGGSENVLTQSPASMSASPGEKVTMTCRASSSVSSSYLHWYQQKSGASPKLWIYSTSNLASGVPARFSGSGSGTSYSLTISSVEAEDAATYYCQQYSGYPLTFGSGTKLEIK
heavy 2: EVRLLESGGGLVQPGGSLRLSCAASGFTFSNYAMGWVRQAPGKGLEWVSAISGSGGSTYYADSVKGRFTTSRDDSKNALYLQMNSLRAEDTAVYYCARGGPGWYAADVWGQGTTVTVSS[here human IgG1 constant region with changes without letters]
light: B1 light

— US20250270341A1 (Alector, published 2025)
